# Numbering of substitutions follows the chain as printed; changes in the protein carry UniProt numbers. The list shows a part of the results.
# T1: RBFOX1 RRM (Homo sapiens, UniProt Q9NWB1 109-208)
# T1 sequence: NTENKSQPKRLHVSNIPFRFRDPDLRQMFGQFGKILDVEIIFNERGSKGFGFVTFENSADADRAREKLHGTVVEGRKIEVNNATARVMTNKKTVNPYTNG
# B1: AGCACGG (DNA:RNA)
# RNA: GGGAGACCGGAAUUCAGAUUGUCCAGCACGGUUAAAUCCCGUCGUAGCCACCA
# DNA 1: CAATCTGAATTCCGGTCTCCC
# DNA 2: TGGTGGCTACGACGGGATT
# B2: AACUGAA (DNA:RNA)
# RNA: B1 RNA with G26A, A28U, C29G, G30A, G31A
# DNA 1: CAATCTGAATTCCGGTCTCCC
# DNA 2: TGGTGGCTACGACGGGATT
# B3: AAACAAU (DNA:RNA)
# RNA: B1 RNA with G26A, C27A, A28C, C29A, G30A, G31U
# DNA 1: CAATCTGAATTCCGGTCTCCC
# DNA 2: TGGTGGCTACGACGGGATT
# B4: CAGACGU (DNA:RNA)
# RNA: B1 RNA with A25C, G26A, C27G, G31U
# DNA 1: CAATCTGAATTCCGGTCTCCC
# DNA 2: TGGTGGCTACGACGGGATT
# B5: CCACUGG (DNA:RNA)
# RNA: B1 RNA with A25C, G26C, C27A, A28C, C29U
# DNA 1: CAATCTGAATTCCGGTCTCCC
# DNA 2: TGGTGGCTACGACGGGATT
# B6: GGGGGUC (DNA:RNA)
# RNA: B1 RNA with A25G, C27G, A28G, C29G, G30U, G31C
# DNA 1: CAATCTGAATTCCGGTCTCCC
# DNA 2: TGGTGGCTACGACGGGATT
# B7: UUCGGUG (DNA:RNA)
# RNA: B1 RNA with A25U, G26U, A28G, C29G, G30U
# DNA 1: CAATCTGAATTCCGGTCTCCC
# DNA 2: TGGTGGCTACGACGGGATT
# B8: GCUUCUG (DNA:RNA)
# RNA: B1 RNA with A25G, G26C, C27U, A28U, G30U
# DNA 1: CAATCTGAATTCCGGTCTCCC
# DNA 2: TGGTGGCTACGACGGGATT
# B9: CAUUUAG (DNA:RNA)
# RNA: B1 RNA with A25C, G26A, C27U, A28U, C29U, G30A
# DNA 1: CAATCTGAATTCCGGTCTCCC
# DNA 2: TGGTGGCTACGACGGGATT
# B10: CUGAGCU (DNA:RNA)
# RNA: B1 RNA with A25C, G26U, C27G, C29G, G30C, G31U
# DNA 1: CAATCTGAATTCCGGTCTCCC
# DNA 2: TGGTGGCTACGACGGGATT
# B11: AGAUCCC (DNA:RNA)
# RNA: B1 RNA with C27A, A28U, G30C, G31C
# DNA 1: CAATCTGAATTCCGGTCTCCC
# DNA 2: TGGTGGCTACGACGGGATT
# B12: CGUCAAC (DNA:RNA)
# RNA: B1 RNA with A25C, C27U, A28C, C29A, G30A, G31C
# DNA 1: CAATCTGAATTCCGGTCTCCC
# DNA 2: TGGTGGCTACGACGGGATT
# B13: AUUGCAA (DNA:RNA)
# RNA: B1 RNA with G26U, C27U, A28G, G30A, G31A
# DNA 1: CAATCTGAATTCCGGTCTCCC
# DNA 2: TGGTGGCTACGACGGGATT
# B14: GUUCUGC (DNA:RNA)
# RNA: B1 RNA with A25G, G26U, C27U, A28C, C29U, G31C
# DNA 1: CAATCTGAATTCCGGTCTCCC
# DNA 2: TGGTGGCTACGACGGGATT
# B15: ACCUCAG (DNA:RNA)
# RNA: B1 RNA with G26C, A28U, G30A
# DNA 1: CAATCTGAATTCCGGTCTCCC
# DNA 2: TGGTGGCTACGACGGGATT
# B16: AGCUUCC (DNA:RNA)
# RNA: B1 RNA with A28U, C29U, G30C, G31C
# DNA 1: CAATCTGAATTCCGGTCTCCC
# DNA 2: TGGTGGCTACGACGGGATT
# B17: UUGAAGG (DNA:RNA)
# RNA: B1 RNA with A25U, G26U, C27G, C29A
# DNA 1: CAATCTGAATTCCGGTCTCCC
# DNA 2: TGGTGGCTACGACGGGATT
# B18: CCCUUAA (DNA:RNA)
# RNA: B1 RNA with A25C, G26C, A28U, C29U, G30A, G31A
# DNA 1: CAATCTGAATTCCGGTCTCCC
# DNA 2: TGGTGGCTACGACGGGATT
# B19: CCGCAAC (DNA:RNA)
# RNA: GGGAGACCGGAAUUCAGAUUGUCCCCGCAACUUAAAUCCCGUCGUAGCCACCA
# DNA 1: CAATCTGAATTCCGGTCTCCC
# DNA 2: TGGTGGCTACGACGGGATT
# B20: GAUUCGG (DNA:RNA)
# RNA: B1 RNA with A25G, G26A, C27U, A28U
# DNA 1: CAATCTGAATTCCGGTCTCCC
# DNA 2: TGGTGGCTACGACGGGATT
# B21: AUGCUCA (DNA:RNA)
# RNA: B19 RNA with C25A, C26U, A29U, A30C, C31A
# DNA 1: CAATCTGAATTCCGGTCTCCC
# DNA 2: TGGTGGCTACGACGGGATT
# B22: AACGACC (DNA:RNA)
# RNA: B1 RNA with G26A, A28G, C29A, G30C, G31C
# DNA 1: CAATCTGAATTCCGGTCTCCC
# DNA 2: TGGTGGCTACGACGGGATT
# B23: ACCGUAC (DNA:RNA)
# RNA: B19 RNA with C25A, G27C, C28G, A29U
# DNA 1: CAATCTGAATTCCGGTCTCCC
# DNA 2: TGGTGGCTACGACGGGATT
# B24: UCUGGGU (DNA:RNA)
# RNA: B1 RNA with A25U, G26C, C27U, A28G, C29G, G31U
# DNA 1: CAATCTGAATTCCGGTCTCCC
# DNA 2: TGGTGGCTACGACGGGATT
# B25: UUAGCCU (DNA:RNA)
# RNA: B1 RNA with A25U, G26U, C27A, A28G, G30C, G31U
# DNA 1: CAATCTGAATTCCGGTCTCCC
# DNA 2: TGGTGGCTACGACGGGATT
# B26: UUAUUCG (DNA:RNA)
# RNA: B1 RNA with A25U, G26U, C27A, A28U, C29U, G30C
# DNA 1: CAATCTGAATTCCGGTCTCCC
# DNA 2: TGGTGGCTACGACGGGATT
# B27: GUGAAAA (DNA:RNA)
# RNA: B19 RNA with C25G, C26U, C28A, C31A
# DNA 1: CAATCTGAATTCCGGTCTCCC
# DNA 2: TGGTGGCTACGACGGGATT
# B28: GGGACAA (DNA:RNA)
# RNA: B1 RNA with A25G, C27G, G30A, G31A
# DNA 1: CAATCTGAATTCCGGTCTCCC
# DNA 2: TGGTGGCTACGACGGGATT
# B29: AGGGUAU (DNA:RNA)
# RNA: B1 RNA with C27G, A28G, C29U, G30A, G31U
# DNA 1: CAATCTGAATTCCGGTCTCCC
# DNA 2: TGGTGGCTACGACGGGATT
# B30: GUCUUUC (DNA:RNA)
# RNA: B1 RNA with A25G, G26U, A28U, C29U, G30U, G31C
# DNA 1: CAATCTGAATTCCGGTCTCCC
# DNA 2: TGGTGGCTACGACGGGATT
# B31: UACACCC (DNA:RNA)
# RNA: B1 RNA with A25U, G26A, G30C, G31C
# DNA 1: CAATCTGAATTCCGGTCTCCC
# DNA 2: TGGTGGCTACGACGGGATT
# Molecular target: T1, RBFOX1 RRM
# Assay: EMSA; HiTS-Eq, 1 nM pool, 10 min; buffer printed only for the single-RNA assays: 10 mM Tris pH 7.5, 150 mM NaCl, 3.4 mM EDTA, 0.001% NP-40, 30 C
# Conditions: tags: His6 N-terminal (pET28a); label: 5' 32P
# How it was run: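 Purified wild-type or mutant RbFox RRM at increasing concentrations was equilibrated with 1 nM of 5′-radiolabelled RNA carrying 7 randomized nucleotides for 10 min in 50 µL. Unbound RNA was separated by 8% native PAGE and sequenced. Relative association constants came from read-count changes of each RNA species compared with the control reaction, normalised to the cognate motif.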
row,Binder,binding signal
1,B1,0.0231 KA relative to UGCAUGU
2,B2,0.0104 KA relative to UGCAUGU
3,B3,0.00047 KA relative to UGCAUGU
4,B4,0.00517 KA relative to UGCAUGU
5,B5,0.00879 KA relative to UGCAUGU
6,B6,0.0306 KA relative to UGCAUGU
7,B7,0.0214 KA relative to UGCAUGU
8,B8,0.0318 KA relative to UGCAUGU
9,B9,0.00741 KA relative to UGCAUGU
10,B10,0.0109 KA relative to UGCAUGU
11,B11,0.00611 KA relative to UGCAUGU
12,B12,0.00305 KA relative to UGCAUGU
13,B13,0.00663 KA relative to UGCAUGU
14,B14,0.0272 KA relative to UGCAUGU
15,B15,0.00561 KA relative to UGCAUGU
16,B16,0.00899 KA relative to UGCAUGU

row,Binder,binding signal
1,B17,0.0111 KA relative to UGCAUGU
2,B18,0.00271 KA relative to UGCAUGU
3,B19,0.00902 KA relative to UGCAUGU
4,B20,0.0065 KA relative to UGCAUGU
5,B21,0.0077 KA relative to UGCAUGU
6,B22,0.00537 KA relative to UGCAUGU
7,B23,0.00318 KA relative to UGCAUGU
8,B24,0.00879 KA relative to UGCAUGU
9,B25,0.00481 KA relative to UGCAUGU
10,B26,0.0188 KA relative to UGCAUGU
11,B27,0.00822 KA relative to UGCAUGU
12,B28,0.0291 KA relative to UGCAUGU
13,B29,0.0148 KA relative to UGCAUGU
14,B30,0.015 KA relative to UGCAUGU
15,B31,0.00137 KA relative to UGCAUGU

# From article PMC9911399, “Two distinct binding modes provide the RNA-binding protein RbFox with extraordinary sequence specificity”
